We go through 50 sequences from the supplement of paper PMC10338343.

± gives the standard deviation. The list shows a part of the results, in another mix than the full data.

The test has as its system MIWI (PIWIL1) piRISC loaded with L1MC piRNA (30 nt). Nature of the test: pre-steady-state target cleavage rate (min^-1); MIWI and MILI are mouse PIWI proteins and EfPiwi is from a freshwater sponge; tags in brackets are library labels; higher = faster piRNA-guided slicing of the target. The settings on record: guide: L1MC piRNA 5'p-UAACUAAAUACUAUGCAAGCUGUAGGUCCU
The method in brief: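 A transcribed, DNA-blocked target RNA library (0.1 nM) and 1 nM active affinity-purified piRISC bearing one synthetic guide were incubated in HEPES–potassium acetate buffer at 33 °C for 0–8 or 0–960 min, either with or without 500 nM GTSF1 partner protein. Uncleaved targets were sequenced, normalised to depth and to weakly complementary targets, and pooled over three trials, with k3 capped at 0.0001 min^-1. The pre-steady-state cleavage rate was derived with a burst-and-steady-state fit.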

Setting [1] is: auxiliary factor: 500 nM mouse GTSF1.
The mark [2] stands for this setting: auxiliary factor: none (no GTSF1).

Take UCCACCUAGUGCUUGCAUAGUAUUUAGUAA: the “pre-steady-state target cleavage rate” value reads like this: under setting [1], 0.344 ± 0.052; under setting [2], 0.006 ± 0.0015.
The corresponding values for UCCACGUACAGCUUGCAUAGUAUUUACUUA are 0.261 ± 0.027 and 0.0289 ± 0.0035.
Consider UCCUGGUACAGCUUGCAUAGAAUUUAGAAA, for which the “pre-steady-state target cleavage rate” value runs as follows: under setting [1], 0.11 ± 0.039; under setting [2], 0.00303 ± 0.0024.
In the same order, the values of UCCUGGAUGUGCUUGCAUAGUAUUUAGUA are 0.155 ± 0.019 and 0.0106 ± 0.0033.
As for AGGACCUAAAGCUUGCAUAGUAUUUAGUUA, the “pre-steady-state target cleavage rate” value is, setting by setting: under setting [1], 0.673 ± 0.05; under setting [2], 0.0594 ± 0.0091.
The corresponding values for UCGACCUACAGCUUGCAAUGUAUUUAGUAA are 0.341 ± 0.037 and 0.00256 ± 0.002.
The corresponding values for UGCACCUACAGCUUGCAUAGUUUUUAGUUA are 0.45 ± 0.041 and 0.0504 ± 0.011.
In the case of UCGACCUACAGCUAGGAUAGUAUUUAGUUA, the “pre-steady-state target cleavage rate” value by setting is: under setting [1], 1.29 ± 0.064; under setting [2], 0.00874 ± 0.0021.
The corresponding values for UCCUCCUAGUGCUUGCAUAGUAUUUAGUUA are 0.384 ± 0.026 and 0.0278 ± 0.005.
The corresponding values for UCCUGGAUGAGCUUGCAUAGUAUAUUAGUUA are 0.464 ± 0.04 and 0.00823 ± 0.004.
The corresponding values for UCGACCUACACCUAGCAUAGUAUUUAGUUA are 0.995 ± 0.058 and 0.0188 ± 0.003.
For UCCUGCUACAGCUUGCAUAGUAUUUAUUUA, the “pre-steady-state target cleavage rate” value under setting [1] is 0.418 ± 0.057 and the “pre-steady-state target cleavage rate” value under setting [2] came to 0.0102 ± 0.0029.
In the same order, the values of UCGACCUACAGCUUGCAUAGUUUUUAGAUA are 0.206 ± 0.023 and 0.0165 ± 0.0047.
In the same order, the values of UCCACCUACAGCUUGCAUUGAAUUUAGUUA are 0.198 ± 0.019 and 0.00668 ± 0.002.
The corresponding values for UCCUGGAUGUGGUUGCAUAGUAUUUAGUAA are 0.0114 ± 0.005 and 0.00475 ± 0.0025.
With UCCUGGAUGUCCUUUGCAUAGUAUUUAGUUA, the “pre-steady-state target cleavage rate” value is 0.0656 ± 0.011 under setting [1] and 0.0069 ± 0.0023 under setting [2].
In the same order, the values of UCGACCUACAGCUUCCAUAGUAUUUAGUUA are 0.139 ± 0.033 and 0.0044 ± 0.0022.
The corresponding values for AGGACCUAUAGCUUGCAUAGUAUUUAGUUA are 1.06 ± 0.053 and 0.0641 ± 0.012.
The corresponding values for UCGAGCUACAGCUUGGAUAGUAUUUAGUUA are 1.11 ± 0.086 and 0.0477 ± 0.0076.
On to UCCACCUACAGCUUGAUAGUAUUUAGUUA, for which the “pre-steady-state target cleavage rate” value under setting [1] came out at 0.834 ± 0.042 and the “pre-steady-state target cleavage rate” value under setting [2] was determined as 0.00512 ± 0.0023.
UCCUGGAUGUGCUUGCUUAGUAUUUUGUUA: the “pre-steady-state target cleavage rate” value was found to be 0.0267 ± 0.006 under setting [1] and 0.00734 ± 0.0026 under setting [2].
The corresponding values for UCCUGGAUGUCCUUGCAUGGUAUUUAGUUA are 0.0401 ± 0.0081 and 0.0121 ± 0.0033.
In the same order, the values of UCGACCUACAGCUUGCAUAGAAUUUAGUAA are 0.507 ± 0.054 and 0.0158 ± 0.0044.
Regarding UCCUGCUACAGCUUGCAUAGUAUUUAGUUUA, the “pre-steady-state target cleavage rate” value under setting [1] came out at 1.17 ± 0.077 and the “pre-steady-state target cleavage rate” value under setting [2] was 0.0574 ± 0.012.
In the same order, the values of UCGACCUACAGCUUCGAUAGUAUUUAGUUA are 0.911 ± 0.058 and 0.00251 ± 0.0018.
In the case of UCCUGGAUGAGCUUGCAUAGAAUAUAGUUA, the “pre-steady-state target cleavage rate” value came to 0.0274 ± 0.0077 under setting [1] and 0.00476 ± 0.0035 under setting [2].
Take UCCUGGAUCAGCUUGCAAGUAUUUAGUUA: the “pre-steady-state target cleavage rate” value was determined as 0.0233 ± 0.0057 under setting [1] and 0.00599 ± 0.0022 under setting [2].
The corresponding values for UCCUGGAACACCUUGCAUAGUAUUUUGUUA are 0.298 ± 0.051 and 0.00453 ± 0.002.
In the same order, the values of UCCUGCAUCAGCUUGCAUAGUAUUUACAAA are 0.277 ± 0.039 and 0.00345 ± 0.0029.
In the same order, the values of UCCUGGUACAGCUUGCAUAGUUAUUAGUAA are 0.0627 ± 0.017 and 0.00413 ± 0.0036.
Turning to UCCUGGAUCUGCUUGCAUAGUAAUUAGUUA, the “pre-steady-state target cleavage rate” value is, setting by setting: under setting [1], 0.244 ± 0.03; under setting [2], 0.0095 ± 0.0034.
In the same order, the values of UCCUCCUACACCUUGCAUAGUAAUUAGUUA are 0.569 ± 0.076 and 0.0139 ± 0.0021.
The corresponding values for UGGACCUACAGCUUGCAUAGUAUGUUAGUUA are 0.604 ± 0.04 and 0.0192 ± 0.004.
In the same order, the values of UCCACCUACAGCUUGCAAAGUAUUUAGAAA are 0.274 ± 0.043 and 0.00359 ± 0.0024.
As for UGGACGUACAGCUUGCAUAGUAUUUAGUAA, the “pre-steady-state target cleavage rate” value is, setting by setting: under setting [1], 0.897 ± 0.076; under setting [2], 0.0568 ± 0.011.
In the same order, the values of UCGACCUACAGCUUGCAAAGUAUUUAGUUA are 1.47 ± 0.056 and 0.0377 ± 0.0085.
The corresponding values for UCCACCUACACGUUGCAUAGUAUUUAGUAA are 0.503 ± 0.036 and 0.00865 ± 0.002.
In the same order, the values of AGGACGAUCAGCUUGCAUAGUAUUUUCAAA are 0.278 ± 0.043 and 0.00598 ± 0.002.
Turning to AGGACCUAGAGCUUGCAUAGUAUUUACAAA, the “pre-steady-state target cleavage rate” value worked out at 0.123 ± 0.033 under setting [1] and 0.00394 ± 0.003 under setting [2].
In the same order, the values of UCCACCUACUGCUUGCAUAGUAUUUUGUUA are 0.457 ± 0.026 and 0.0261 ± 0.0036.
The corresponding values for AGGUGGUACAGCUUGCAUAGUAUUUAGAAA are 0.19 ± 0.044 and 0.00559 ± 0.0016.
The corresponding values for AGGACCUAGAGCUUGGAUAGUAUUUAGUUA are 1.15 ± 0.062 and 0.0524 ± 0.0094.
With UCCACCUACAGCAUGCAUAGUAUUUACUUA, the “pre-steady-state target cleavage rate” value stood at 0.521 ± 0.057 under setting [1] and 0.0148 ± 0.0032 under setting [2].
The corresponding values for AGGACCUACAGCUUGCAUAGUUUUUAGUUA are 0.433 ± 0.028 and 0.0499 ± 0.011.
The corresponding values for UCCUGCUACAGCUUGCAUAGUAUAUAGAUA are 0.201 ± 0.051 and 0.00412 ± 0.0027.
In the same order, the values of UGGACCUACAGCUUCCAUUGUAUUUAGUUA are 0.113 ± 0.009 and 0.0026 ± 0.0019.
With “UCCUGGUACAGCUUGCAUAGUAUUUAGUUG [g2:g24:cont:t1G]”, the “pre-steady-state target cleavage rate” value was determined as 0.491 ± 0.024 under setting [1] and 0.0391 ± 0.0078 under setting [2].
In the same order, the values of UCCUCCUACAGCUUGCAUAGAAUUUAGUUA are 0.464 ± 0.042 and 0.0224 ± 0.0067.
The corresponding values for AGGACCUACAGCUUGCAUAGUAUUUAGCUA are 0.352 ± 0.11 and 0.00741 ± 0.0041.
The corresponding values for UCCUGGAUGAGCUUGCCUAGUAUUUAGUUA are 0.797 ± 0.041 and 0.0233 ± 0.0052.
